In paper PMC4336329 (PLoS ONE, 2015):
Screen size: about 310,000 compounds; about 14,000 (4.5%) showed an effect of 50% or more. Effects have a minus sign here. The list shows a part of the results.

Target: human ether-à-go-go-related gene (hERG) potassium channel (human, UniProt Q12809)
Assay: primary screen, population patch clamp on CHO cells stably expressing hERG
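Further: peak tail current of the secondary pulse compared with the same well before compound.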

Chain of human ether-à-go-go-related gene (hERG) potassium channel (Q12809 whole entry, looked up): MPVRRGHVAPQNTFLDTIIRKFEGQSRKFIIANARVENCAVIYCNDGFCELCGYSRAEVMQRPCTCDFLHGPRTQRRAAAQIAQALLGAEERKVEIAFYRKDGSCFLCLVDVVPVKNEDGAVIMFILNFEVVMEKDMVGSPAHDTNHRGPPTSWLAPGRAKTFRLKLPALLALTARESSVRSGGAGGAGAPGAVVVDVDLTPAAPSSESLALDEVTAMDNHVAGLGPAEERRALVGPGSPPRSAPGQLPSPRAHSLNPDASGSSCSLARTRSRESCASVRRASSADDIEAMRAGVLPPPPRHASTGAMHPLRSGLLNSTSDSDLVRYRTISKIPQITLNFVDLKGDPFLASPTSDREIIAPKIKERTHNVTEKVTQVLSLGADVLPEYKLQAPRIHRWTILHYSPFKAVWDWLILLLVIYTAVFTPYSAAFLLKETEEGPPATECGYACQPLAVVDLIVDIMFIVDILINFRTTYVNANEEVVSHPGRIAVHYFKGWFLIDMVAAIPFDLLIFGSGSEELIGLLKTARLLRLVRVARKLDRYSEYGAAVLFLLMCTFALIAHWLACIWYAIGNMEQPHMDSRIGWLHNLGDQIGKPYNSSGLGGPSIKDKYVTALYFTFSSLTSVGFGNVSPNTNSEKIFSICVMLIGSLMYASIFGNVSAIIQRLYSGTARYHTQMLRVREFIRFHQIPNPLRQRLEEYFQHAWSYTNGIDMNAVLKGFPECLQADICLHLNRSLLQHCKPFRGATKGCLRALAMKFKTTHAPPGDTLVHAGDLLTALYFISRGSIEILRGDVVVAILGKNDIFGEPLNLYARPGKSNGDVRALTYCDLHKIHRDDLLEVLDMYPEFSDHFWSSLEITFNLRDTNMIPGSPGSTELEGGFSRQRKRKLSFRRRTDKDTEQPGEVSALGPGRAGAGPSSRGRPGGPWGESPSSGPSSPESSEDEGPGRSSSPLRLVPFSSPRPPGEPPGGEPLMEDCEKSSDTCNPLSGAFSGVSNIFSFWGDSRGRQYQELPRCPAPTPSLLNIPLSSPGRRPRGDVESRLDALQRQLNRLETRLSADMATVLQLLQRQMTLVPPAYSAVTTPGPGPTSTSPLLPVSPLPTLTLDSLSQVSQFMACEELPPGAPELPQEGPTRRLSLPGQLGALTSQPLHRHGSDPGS

Structure (SMILES) | hERG current change (%, negative = inhibition) at 10uM
O=C1c2cccnc2C(=O)N1Cc1ccc(S(=O)(=O)N2CCOc3ccc(Cl)cc32)cc1 | 13.7%
O=C(c1ccccc1F)N1CCN=C1c1ccccc1 | 1.58%
COc1ccc(Nc2n[nH]c(C)c2[N+](=O)[O-])cc1 | 9.52%
CCP(=O)(CC)c1cccc(N)c1 | -2.95%
O=C(NNc1nc2ccccc2s1)c1ccccc1F | -7.04%
COc1ccc(CC(=O)NNC(=O)c2ccoc2C)cc1OC | 6.04%
CC(C)=CCN1CCN(Cc2cnc(N3CCCC3)s2)CC1CCO (stereo not shown) | 34.1%
Cc1c(NC(=O)COC(=O)CSc2ccc([N+](=O)[O-])cc2)c(=O)n(-c2ccccc2)n1C | -11.1%
N#C/C(=C(\O)c1ccco1)c1ccccn1 | 2.52%
COc1ccc(-n2c(SC(C)C(=O)Nc3ncc(Cl)cc3Cl)nc3ccccc32)cc1 (stereo not shown) | 1.47%
COc1ccc(CCNC(=O)c2ccc3c(c2)S(=O)(=O)N=C2CCCCCN23)cc1 | -5.16%
Cc1cc2nc(C(F)(F)F)cc(-c3cccs3)n2n1 | 23.6%
O=C(NCc1ccc(F)cc1)C(=O)NCC1OCCN1S(=O)(=O)c1cccs1 (stereo not shown) | -9.44%
CCc1ccc(N2CC(C(=O)OCC(=O)Nc3ccccc3C)CC2=O)cc1 (stereo not shown) | 5.78%
O=C(Cc1c(F)cccc1Cl)N1CCN(S(=O)(=O)c2cccc(F)c2)CC1 | 7.81%
Cc1cccc(C)c1NS(=O)(=O)c1cc2c3c(c1)CCN3C(=O)CC2 | -10%
N#Cc1ccc(CSc2nnc(NC(=O)CCc3nc4ccccc4c(=O)[nH]3)s2)cc1 | -3.53%
COc1ccc(N2CCN(C3CCCN(C(=O)CSC)C3)CC2)cc1 (stereo not shown) | 3.1%
CCCC(C(=O)NC1CCCC1)N(Cc1ccc(F)cc1)C(=O)c1snc(C(N)=O)c1N (stereo not shown) | -45%
Cc1ccnc(NC(=O)CCC(=O)N(CC(=O)NCc2ccc(F)cc2)c2cccc(F)c2)c1 | 8.76%
Cc1cc(C)n(CCC(=O)N2CCN(S(=O)(=O)c3ccccc3)CC2)n1 | 19.4%
O=C(CN1CCCc2ccccc21)NCCc1ccc(Cl)cc1 | -13.1%

Structure (SMILES) | hERG current change (%, negative = inhibition) at 10uM
CCCCC(CC)COC(=O)c1ccccc1C(=O)OCC(CC)CCCC (stereo not shown) | 9.63%
Cc1ccc(S(=O)(=O)N(C)c2ccc(OCC(=O)NCc3ccco3)cc2)cc1 | -44.8%
C[C@H]1CC[C@H]2NCCN[C@H]2C1 | 4.76%
C/C(=N\Nc1ccccn1)c1ccc2c(c1)OCO2 | -8.06%
S=C1NC(c2ccccc2)=NCN1c1ccc(Br)cc1 | -12.9%
C=CCN(C(=O)c1csnn1)C(C(=O)NC1CCCC1)c1ccc(F)cc1 (stereo not shown) | -0.596%
O=C(/C=C/c1ccccc1)NCCc1ccccc1 | -0.345%
c1ccc(-n2nnc3ccccc32)nc1 | 3.7%
COc1ccc(Cl)cc1NC(=O)CN(C)C(=O)CCC(=O)c1cc(C)sc1C | -29.5%
COc1cccc(N=Nc2c(=O)[nH]n3c(C)cc(C)nc23)c1 | -17.5%
CC1(C)Cc2ccccc2C(=NCCCC(=O)O)N1 | 9.66%
C=CCn1c(O)c(C(C)=Nc2cccc(C(F)(F)F)c2)c(=O)[nH]c1=O | 2.66%
Cc1ccc(S(=O)(=O)N2CCN(c3ccc(C(F)(F)F)cc3[N+](=O)[O-])CC2)cc1 | -30.8%
CCNc1nc(NCC)nc(N/N=C/c2ccc(O)c(O)c2)n1 | 25.9%
COC(=O)C1=C(C)N(C2CCCCC2)C(=O)/C1=C\c1cccs1 | 14.8%
COc1cccc(C2CC(c3c(F)cccc3Cl)n3nc(N)nc3N2)c1 (stereo not shown) | -2.6%
S=c1[nH]cnc2sc(Nc3ccccc3)nc12 | 20.7%
Cc1c(OC(C)C(=O)NCC2CCC(C(=O)O)CC2)ccc2c3c(c(=O)oc12)CCCC3 (stereo not shown) | -12.6%
CCOC(=O)C1=C(C)Nc2nc(SCc3cccnc3)nn2C1c1ccc(OC)cc1 (stereo not shown) | 2.63%
CCOC(=O)CNC(=O)N1c2ccccc2Sc2ccccc21 | 6.18%
Cc1ccc(SCC(=O)OC(C)C(=O)N2CCc3ccccc32)cc1 (stereo not shown) | -6.65%
Cc1c2c(nc3c(C(=O)NC4CC4)cnn13)CCCC2 | -8.22%

Structure (SMILES) | hERG current change (%, negative = inhibition) at 10uM
COc1ccc(OC)c(NC(=O)C(=O)NCCC2=CCCCC2)c1 | 7.22%
CCCCCCCCCCCCCCCC(=O)OC/C=C(C)/C=C/C=C(C)/C=C/C1=C(C)CCCC1(C)C | 13.7%
O=C(NCc1ccccn1)C1CCCN(S(=O)(=O)c2ccccc2)C1 (stereo not shown) | 10.9%
O=C(CN1C(=O)c2ccccc2C1=O)Nc1cc(C(=O)O)cc(C(=O)O)c1 | 7.72%
O=c1cc(-c2cc3ccccc3o2)c2cc(O)ccc2o1 | 13.3%
COc1cc(/C=C(/C#N)c2nc3ccccc3[nH]2)ccc1OCc1ccc(C(=O)O)o1 | 10.7%
CC(=O)N1CCN(c2ccccc2NC(=O)c2ccc3ccccc3c2)CC1 | -61.9%
COc1cccc(N2CCN(C(=O)Nc3ccc4c(c3)NC(=O)CO4)CC2)c1 | -75.8%
O=c1[nH][nH]c(C(F)(F)F)c1/C=N/N1CCOCC1 | 18.5%
O=C(c1ncc[nH]1)c1ccco1 | 6.64%
N#C/C(=N\O)c1nc(-c2ccccc2)cs1 | 15.9%
CC(C)(C)C(=O)Oc1cc(N)n(S(=O)(=O)c2ccc(F)cc2)n1 | 8.96%
CC(=O)n1cc([C@@H]2C=C(C(=O)N3CCN(Cc4ccccc4)CC3)O[C@H](OCc3ccc(CO)cc3)C2)c2ccccc21 | -10.1%
CCOC(CNC(=O)C(=O)NCC(c1ccco1)N1CCN(c2ccc(OC)cc2)CC1)OCC (stereo not shown) | 0.386%
COc1ccc(NC(=O)N2Cc3ccccc3CC2C(=O)NC(C)(C)C)cc1 (stereo not shown) | 1.23%
COc1ccccc1NC(=O)CSc1nnc(CC(=O)Nc2ccccc2C)n1C | 18.7%
COc1ccc(C(N)=O)cc1NC(=O)CC(O)(C(F)(F)F)C(F)(F)F | 7.68%
COc1ccc(NC(=O)C2CCCN2S(=O)(=O)c2cccc3cccnc23)c(OC)c1 (stereo not shown) | -6.73%
CCN(CC)C(=O)Oc1cc(COC)nc(-c2ccccc2)n1 | -1.63%
CC(CCc1ccccc1)NC(=O)C1CCCN(C(=O)c2cc3sccc3n2C)C1 (stereo not shown) | -27.4%
COC(=O)c1ccc(NC(=O)CSc2nnc(-c3ccncc3)n2N)cc1 | 2.05%
CCn1ncc([N+](=O)[O-])c1C(=O)N1CCCC1 | 20.9%

Structure (SMILES) | hERG current change (%, negative = inhibition) at 10uM
O=c1c(Cl)c(NCCCO)cnn1-c1nc2ccccc2[nH]1 | -6.07%
COC(=O)c1ccc(N(C(=O)CNC(=O)c2ccco2)C(C(=O)NCC2CCCO2)c2ccc(OC)c(OC)c2)cc1 (stereo not shown) | 12.6%
O=C(NCc1ccccn1)c1cc(-c2ccccc2Cl)nc2ccccc12 | -2.16%
Cc1cc(C(=O)Nc2ccc3ccccc3c2)c(C)o1 | 6.68%
CCOC(=O)c1cn(CC)c2cc(N3CCN(C)CC3)c(F)cc2c1=O | 18.9%
CCOC(=O)N1CCN(C(=O)c2cc(OC)cc(OC)c2)CC1 | -1.58%
CCOC(=O)c1ccc2c(c1)C(=O)N(C1CCCCC1)C2=O | 2.81%
COCCn1c(C)cc(C(=O)COC(=O)/C=C/c2c(C)nn(C3CCS(=O)(=O)C3)c2Cl)c1C (stereo not shown) | -12.3%
COc1cccc2cc(C(C)N(CCCN3CCOCC3)C(=O)Nc3ccccc3)oc12 (stereo not shown) | -16.9%
CCC(CC)C(=O)c1c[nH]c(C(=O)NCc2ccccc2OC)c1 | 14.9%
CC(C)c1ccc(NC(=O)C(c2ccccc2)N2CC(=O)Nc3ccccc32)cc1 (stereo not shown) | 11.4%
CCOC(=O)N1CCN(c2c(NCC3CCN(Cc4cccc(C)c4)CC3)c(=O)c2=O)CC1 | 2.2%
Cc1cc(C(=O)Nc2ccc(Cl)cc2)c(C)n1-c1ccccc1 | -0.535%
COc1cc2ccccc2cc1C(=O)N(CCN(C)C)c1nc2c(OC)ccc(OC)c2s1.Cl | -15.6%
Cc1cc(OC(C)C(=O)NCc2ccncc2)c2c3c(c(=O)oc2c1)CCC3 (stereo not shown) | -2.14%
O=C(c1sccc1-c1ccccc1)N1CCN(S(=O)(=O)c2ccccc2F)CC1 | -49.3%
Nc1cc(=O)[nH]c(=O)n1-c1ccc(Cl)cc1 | 15.2%
O=S(=O)(Nc1ccncc1Cl)c1cccc(Cl)c1Cl | 19.4%
Cc1cc(NC(=O)c2ccc(F)cc2)no1 | 22.1%
CSCCC(NC(=O)c1ccco1)C(=O)OCC(=O)Nc1ncc(Cl)c(C)c1Cl (stereo not shown) | -24.6%
COc1ccccc1-n1cnnc1SCC(=O)Nc1nc(C)c(Cl)cc1Cl | -8.05%
CC(C)(C)c1ccccc1OCCN1CCCC1 | -24.1%
